# Reference: the BET-seq Pho4 binding data (Le et al. 2018)
# The other results are listed elsewhere or left out. These are noisy estimates, calculated here from bound and input reads.
# Target: T1, Pho4 (S. cerevisiae) (UniProt P07270)
# T1 sequence: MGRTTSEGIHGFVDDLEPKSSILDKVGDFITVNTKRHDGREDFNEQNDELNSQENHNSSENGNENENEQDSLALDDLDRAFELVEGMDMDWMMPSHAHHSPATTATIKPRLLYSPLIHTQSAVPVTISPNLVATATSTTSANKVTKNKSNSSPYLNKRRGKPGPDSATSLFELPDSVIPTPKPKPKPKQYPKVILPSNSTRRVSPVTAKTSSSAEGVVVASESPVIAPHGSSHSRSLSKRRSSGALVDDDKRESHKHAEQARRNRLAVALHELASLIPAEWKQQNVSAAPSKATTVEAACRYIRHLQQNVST
# Test: relative binding free energy (BET-seq); higher = weaker binding
# Conditions: reference: library average
row,Sequence,relative binding free energy [kcal/mol]
1,ATGTTCACGTGGAAAG,0.3
2,AAGGGCACGTGGAGTC,-0.12
3,AGTCTCACGTGAGTGG,0.22
4,GCTTTCACGTGTGGTA,0.27
5,GGAGTCACGTGGTTCG,0.1
6,GTCGTCACGTGATCTT,0.49
7,ATTAGCACGTGTAGGC,0.06
8,GATAACACGTGGAGGT,0.03
9,AGAGCCACGTGGGATG,0.02
10,ATGAGCACGTGTGTGG,-0.03
11,AGGTACACGTGTGAAT,0.29
12,GTAATCACGTGGGTCT,0.11
13,GCGTTCACGTGGGATG,0.37
14,GACTTCACGTGAGGGT,0.35
15,CTTATCACGTGAAGTG,0.2
16,AGTAGCACGTGGGGCC,-0.25
17,GTATGCACGTGTTAGA,0.11
18,TTCGGCACGTGGGAAG,-0.13
19,GCTTTCACGTGGTTAT,0.22
20,GAGCGCACGTGCTGGT,0.04
21,GCAGGCACGTGGGCTG,-0.25

row,Sequence,relative binding free energy [kcal/mol]
1,TAATTCACGTGTGGTT,0.38
2,GTCATCACGTGGTCGT,0.09
3,TTAGTCACGTGTTTTC,0.18
4,TGTGTCACGTGGCCAT,-0.07
5,CAGTACACGTGGTATG,-0.04
6,ATTGACACGTGGTCTT,-0.17
7,AAATTCACGTGGGCGG,0.21
8,AAGGACACGTGAGGAG,0.42
9,GGGTCCACGTGTAGGG,0.16
10,GGCGACACGTGTATGG,0.07
11,TGGAACACGTGTTTAT,0.06
12,CTTTGCACGTGGCGGA,-0.08
13,TAAAGCACGTGTGAGT,-0.18
14,GGGGGCACGTGTTAGT,0.02
15,TGGGGCACGTGATACG,-0.12
16,AGTGACACGTGTTTTA,0.05
17,AGTGTCACGTGGACAG,-0.04
18,TTTTCCACGTGTTTCG,0.08
19,TGCAACACGTGGGAAG,-0.01
20,GCGTTCACGTGCGTGG,0.2
21,TAGTCCACGTGGTTTT,0

row,Sequence,relative binding free energy [kcal/mol]
1,CATGGCACGTGTAGCG,0.02
2,TCTTGCACGTGGGGGC,-0.19
3,TAGTACACGTGGACGT,0.14
4,GTTCGCACGTGGTTGA,0.02
5,GTACGCACGTGGGGCT,-0.16
6,GGCTGCACGTGGGTTG,-0.04
7,CTGTGCACGTGGGGGC,-0.14
8,TATAACACGTGTCTTG,0.14
9,AGTTTCACGTGGTCTA,0.08
10,TGTGCCACGTGTTTTG,-0.01
11,AGTTTCACGTGATTTA,0.29
12,TGTGACACGTGCAGGT,-0.13
13,GGCAGCACGTGGATGG,-0.04
14,TGGACCACGTGGTGGT,-0.12
15,GTGTACACGTGCTGGG,0.09
16,TAAGACACGTGGGTAT,-0.13
17,AAAGTCACGTGAGGGA,0.3
18,TGGGGCACGTGGCGTT,-0.24
19,TTAGACACGTGTAGGT,0.07
20,AGTGCCACGTGTTGGT,-0.07
21,ATATGCACGTGCGTTT,-0.14
